Results as given in article PMC6576747.
These are yes or no findings as the source states them, for the method shown. Some results given as binding are weak or reduced against the parent protein; the word gives no strength. Where a sequence is shown, tags or fusion partners need not be part of it.

Experiments:
[1] = target: T1, Swi6 (yeast two-hybrid fusion) (S. pombe) (UniProt P40381); assay: two-hybrid; Matchmaker GAL4 Two-Hybrid System 3, host AH109, HIS3 reporter, serial dilution on -TLH, 15 mM 3-AT; both orientations (bait-prey exchange)
T1 sequence: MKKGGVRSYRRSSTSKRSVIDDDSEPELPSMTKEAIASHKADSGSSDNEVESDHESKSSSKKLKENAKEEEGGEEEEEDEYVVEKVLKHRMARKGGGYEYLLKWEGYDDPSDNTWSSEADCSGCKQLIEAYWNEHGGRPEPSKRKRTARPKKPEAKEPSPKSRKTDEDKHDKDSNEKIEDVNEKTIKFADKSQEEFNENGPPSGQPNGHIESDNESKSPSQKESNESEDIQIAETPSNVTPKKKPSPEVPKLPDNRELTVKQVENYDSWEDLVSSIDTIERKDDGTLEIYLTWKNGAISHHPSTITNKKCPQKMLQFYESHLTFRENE

[2] = target: T2, Epe1 (yeast two-hybrid fusion) (S. pombe) (UniProt O94603); assay: as above
T2 sequence: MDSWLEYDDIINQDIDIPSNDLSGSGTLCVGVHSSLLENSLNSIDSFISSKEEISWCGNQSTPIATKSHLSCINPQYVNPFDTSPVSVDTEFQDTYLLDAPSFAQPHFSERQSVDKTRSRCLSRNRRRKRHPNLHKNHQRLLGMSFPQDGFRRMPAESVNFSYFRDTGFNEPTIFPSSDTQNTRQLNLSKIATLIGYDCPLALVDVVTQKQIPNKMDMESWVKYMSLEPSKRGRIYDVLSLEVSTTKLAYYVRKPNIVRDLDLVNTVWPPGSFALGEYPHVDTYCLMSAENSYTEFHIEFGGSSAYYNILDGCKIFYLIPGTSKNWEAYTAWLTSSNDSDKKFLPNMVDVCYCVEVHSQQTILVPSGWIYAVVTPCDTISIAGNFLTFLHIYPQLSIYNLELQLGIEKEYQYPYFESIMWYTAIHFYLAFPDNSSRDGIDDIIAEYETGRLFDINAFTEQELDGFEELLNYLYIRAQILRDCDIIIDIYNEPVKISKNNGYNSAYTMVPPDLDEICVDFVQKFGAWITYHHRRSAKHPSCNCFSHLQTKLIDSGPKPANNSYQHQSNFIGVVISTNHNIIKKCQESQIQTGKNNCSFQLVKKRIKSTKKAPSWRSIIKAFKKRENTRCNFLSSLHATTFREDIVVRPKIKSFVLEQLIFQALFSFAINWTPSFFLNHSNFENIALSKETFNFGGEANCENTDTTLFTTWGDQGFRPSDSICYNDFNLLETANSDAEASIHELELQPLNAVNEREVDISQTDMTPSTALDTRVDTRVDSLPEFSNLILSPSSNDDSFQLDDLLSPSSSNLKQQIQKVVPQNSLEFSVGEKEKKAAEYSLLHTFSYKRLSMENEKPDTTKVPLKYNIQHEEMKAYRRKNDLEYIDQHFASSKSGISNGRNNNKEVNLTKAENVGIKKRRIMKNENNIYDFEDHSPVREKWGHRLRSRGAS

[3] = target: T3, Swi6 (yeast two-hybrid fusion) (S. pombe), P40381; assay: as above; details: remark: other sources report otherwise
T3 chain: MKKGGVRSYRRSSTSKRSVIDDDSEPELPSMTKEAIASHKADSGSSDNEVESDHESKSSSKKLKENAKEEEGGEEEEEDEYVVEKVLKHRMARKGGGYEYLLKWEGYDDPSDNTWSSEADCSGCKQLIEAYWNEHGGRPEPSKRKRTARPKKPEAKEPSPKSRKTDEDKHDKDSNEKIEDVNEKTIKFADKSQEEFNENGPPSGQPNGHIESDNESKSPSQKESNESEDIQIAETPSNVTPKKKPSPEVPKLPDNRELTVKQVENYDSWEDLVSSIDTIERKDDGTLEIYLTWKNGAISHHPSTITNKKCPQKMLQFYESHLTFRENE

[4] = target: T4, Epe1H297A (yeast two-hybrid fusion) (S. pombe), O94603; assay: as above; details: remark: other sources report otherwise
T4 chain: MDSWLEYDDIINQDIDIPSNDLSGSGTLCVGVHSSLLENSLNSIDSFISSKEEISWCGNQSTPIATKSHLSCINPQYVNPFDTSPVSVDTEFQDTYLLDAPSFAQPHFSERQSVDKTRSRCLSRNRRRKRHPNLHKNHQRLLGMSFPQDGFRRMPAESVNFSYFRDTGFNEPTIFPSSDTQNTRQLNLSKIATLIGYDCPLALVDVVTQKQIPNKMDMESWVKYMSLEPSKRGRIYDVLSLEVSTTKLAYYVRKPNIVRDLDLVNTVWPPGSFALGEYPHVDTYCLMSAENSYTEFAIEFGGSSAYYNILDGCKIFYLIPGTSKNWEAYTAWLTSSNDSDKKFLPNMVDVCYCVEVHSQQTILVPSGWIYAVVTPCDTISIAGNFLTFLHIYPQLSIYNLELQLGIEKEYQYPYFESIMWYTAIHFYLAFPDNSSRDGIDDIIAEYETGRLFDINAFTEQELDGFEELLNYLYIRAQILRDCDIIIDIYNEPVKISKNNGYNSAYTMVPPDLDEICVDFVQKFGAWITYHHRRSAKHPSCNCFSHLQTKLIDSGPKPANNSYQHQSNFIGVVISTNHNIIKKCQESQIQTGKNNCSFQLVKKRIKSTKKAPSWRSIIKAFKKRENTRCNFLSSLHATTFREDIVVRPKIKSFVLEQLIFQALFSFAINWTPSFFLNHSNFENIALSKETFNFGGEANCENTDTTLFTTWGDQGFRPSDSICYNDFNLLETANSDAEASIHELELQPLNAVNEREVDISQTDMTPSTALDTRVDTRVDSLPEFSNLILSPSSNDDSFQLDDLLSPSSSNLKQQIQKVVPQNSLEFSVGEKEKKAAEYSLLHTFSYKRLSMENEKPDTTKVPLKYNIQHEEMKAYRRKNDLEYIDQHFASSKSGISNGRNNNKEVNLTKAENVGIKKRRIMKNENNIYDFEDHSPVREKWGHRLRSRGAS

[5] = target: T1, Swi6 (yeast two-hybrid fusion) (S. pombe); assay: two-hybrid; Matchmaker GAL4 Two-Hybrid System 3, host AH109, HIS3 reporter, serial dilution on -TLH; halves of Epe1 against Swi6; which was bait is not told

B1: Epe1 (yeast two-hybrid fusion) (protein, UniProt O94603 1-948)
chain: MDSWLEYDDIINQDIDIPSNDLSGSGTLCVGVHSSLLENSLNSIDSFISSKEEISWCGNQSTPIATKSHLSCINPQYVNPFDTSPVSVDTEFQDTYLLDAPSFAQPHFSERQSVDKTRSRCLSRNRRRKRHPNLHKNHQRLLGMSFPQDGFRRMPAESVNFSYFRDTGFNEPTIFPSSDTQNTRQLNLSKIATLIGYDCPLALVDVVTQKQIPNKMDMESWVKYMSLEPSKRGRIYDVLSLEVSTTKLAYYVRKPNIVRDLDLVNTVWPPGSFALGEYPHVDTYCLMSAENSYTEFHIEFGGSSAYYNILDGCKIFYLIPGTSKNWEAYTAWLTSSNDSDKKFLPNMVDVCYCVEVHSQQTILVPSGWIYAVVTPCDTISIAGNFLTFLHIYPQLSIYNLELQLGIEKEYQYPYFESIMWYTAIHFYLAFPDNSSRDGIDDIIAEYETGRLFDINAFTEQELDGFEELLNYLYIRAQILRDCDIIIDIYNEPVKISKNNGYNSAYTMVPPDLDEICVDFVQKFGAWITYHHRRSAKHPSCNCFSHLQTKLIDSGPKPANNSYQHQSNFIGVVISTNHNIIKKCQESQIQTGKNNCSFQLVKKRIKSTKKAPSWRSIIKAFKKRENTRCNFLSSLHATTFREDIVVRPKIKSFVLEQLIFQALFSFAINWTPSFFLNHSNFENIALSKETFNFGGEANCENTDTTLFTTWGDQGFRPSDSICYNDFNLLETANSDAEASIHELELQPLNAVNEREVDISQTDMTPSTALDTRVDTRVDSLPEFSNLILSPSSNDDSFQLDDLLSPSSSNLKQQIQKVVPQNSLEFSVGEKEKKAAEYSLLHTFSYKRLSMENEKPDTTKVPLKYNIQHEEMKAYRRKNDLEYIDQHFASSKSGISNGRNNNKEVNLTKAENVGIKKRRIMKNENNIYDFEDHSPVREKWGHRLRSRGAS
B1 was tested, and the binding [1] was “binds”.

B2: Swi6 (yeast two-hybrid fusion) (protein, UniProt P40381 1-328)
chain: MKKGGVRSYRRSSTSKRSVIDDDSEPELPSMTKEAIASHKADSGSSDNEVESDHESKSSSKKLKENAKEEEGGEEEEEDEYVVEKVLKHRMARKGGGYEYLLKWEGYDDPSDNTWSSEADCSGCKQLIEAYWNEHGGRPEPSKRKRTARPKKPEAKEPSPKSRKTDEDKHDKDSNEKIEDVNEKTIKFADKSQEEFNENGPPSGQPNGHIESDNESKSPSQKESNESEDIQIAETPSNVTPKKKPSPEVPKLPDNRELTVKQVENYDSWEDLVSSIDTIERKDDGTLEIYLTWKNGAISHHPSTITNKKCPQKMLQFYESHLTFRENE
For B2, the binding [2] was “binds”.

B3: Epe1H297A (yeast two-hybrid fusion), O94603 1-948 (protein)
chain: MDSWLEYDDIINQDIDIPSNDLSGSGTLCVGVHSSLLENSLNSIDSFISSKEEISWCGNQSTPIATKSHLSCINPQYVNPFDTSPVSVDTEFQDTYLLDAPSFAQPHFSERQSVDKTRSRCLSRNRRRKRHPNLHKNHQRLLGMSFPQDGFRRMPAESVNFSYFRDTGFNEPTIFPSSDTQNTRQLNLSKIATLIGYDCPLALVDVVTQKQIPNKMDMESWVKYMSLEPSKRGRIYDVLSLEVSTTKLAYYVRKPNIVRDLDLVNTVWPPGSFALGEYPHVDTYCLMSAENSYTEFAIEFGGSSAYYNILDGCKIFYLIPGTSKNWEAYTAWLTSSNDSDKKFLPNMVDVCYCVEVHSQQTILVPSGWIYAVVTPCDTISIAGNFLTFLHIYPQLSIYNLELQLGIEKEYQYPYFESIMWYTAIHFYLAFPDNSSRDGIDDIIAEYETGRLFDINAFTEQELDGFEELLNYLYIRAQILRDCDIIIDIYNEPVKISKNNGYNSAYTMVPPDLDEICVDFVQKFGAWITYHHRRSAKHPSCNCFSHLQTKLIDSGPKPANNSYQHQSNFIGVVISTNHNIIKKCQESQIQTGKNNCSFQLVKKRIKSTKKAPSWRSIIKAFKKRENTRCNFLSSLHATTFREDIVVRPKIKSFVLEQLIFQALFSFAINWTPSFFLNHSNFENIALSKETFNFGGEANCENTDTTLFTTWGDQGFRPSDSICYNDFNLLETANSDAEASIHELELQPLNAVNEREVDISQTDMTPSTALDTRVDTRVDSLPEFSNLILSPSSNDDSFQLDDLLSPSSSNLKQQIQKVVPQNSLEFSVGEKEKKAAEYSLLHTFSYKRLSMENEKPDTTKVPLKYNIQHEEMKAYRRKNDLEYIDQHFASSKSGISNGRNNNKEVNLTKAENVGIKKRRIMKNENNIYDFEDHSPVREKWGHRLRSRGAS
For B3, the binding [3] was “binds”.

B4: Swi6 (yeast two-hybrid fusion), P40381 1-328 (protein)
chain: MKKGGVRSYRRSSTSKRSVIDDDSEPELPSMTKEAIASHKADSGSSDNEVESDHESKSSSKKLKENAKEEEGGEEEEEDEYVVEKVLKHRMARKGGGYEYLLKWEGYDDPSDNTWSSEADCSGCKQLIEAYWNEHGGRPEPSKRKRTARPKKPEAKEPSPKSRKTDEDKHDKDSNEKIEDVNEKTIKFADKSQEEFNENGPPSGQPNGHIESDNESKSPSQKESNESEDIQIAETPSNVTPKKKPSPEVPKLPDNRELTVKQVENYDSWEDLVSSIDTIERKDDGTLEIYLTWKNGAISHHPSTITNKKCPQKMLQFYESHLTFRENE
B4 was tested, and the binding [4] was “binds”.

B5: C-terminal half of Epe1 (487–948 amino acids region) (domain or fragment, UniProt O94603 487-948)
chain: DIYNEPVKISKNNGYNSAYTMVPPDLDEICVDFVQKFGAWITYHHRRSAKHPSCNCFSHLQTKLIDSGPKPANNSYQHQSNFIGVVISTNHNIIKKCQESQIQTGKNNCSFQLVKKRIKSTKKAPSWRSIIKAFKKRENTRCNFLSSLHATTFREDIVVRPKIKSFVLEQLIFQALFSFAINWTPSFFLNHSNFENIALSKETFNFGGEANCENTDTTLFTTWGDQGFRPSDSICYNDFNLLETANSDAEASIHELELQPLNAVNEREVDISQTDMTPSTALDTRVDTRVDSLPEFSNLILSPSSNDDSFQLDDLLSPSSSNLKQQIQKVVPQNSLEFSVGEKEKKAAEYSLLHTFSYKRLSMENEKPDTTKVPLKYNIQHEEMKAYRRKNDLEYIDQHFASSKSGISNGRNNNKEVNLTKAENVGIKKRRIMKNENNIYDFEDHSPVREKWGHRLRSRGAS
In the case of B5, the binding [5] is reported as “binds”.

B6: N-terminal half of Epe1 (1–486) (domain or fragment, UniProt O94603 1-486)
chain: MDSWLEYDDIINQDIDIPSNDLSGSGTLCVGVHSSLLENSLNSIDSFISSKEEISWCGNQSTPIATKSHLSCINPQYVNPFDTSPVSVDTEFQDTYLLDAPSFAQPHFSERQSVDKTRSRCLSRNRRRKRHPNLHKNHQRLLGMSFPQDGFRRMPAESVNFSYFRDTGFNEPTIFPSSDTQNTRQLNLSKIATLIGYDCPLALVDVVTQKQIPNKMDMESWVKYMSLEPSKRGRIYDVLSLEVSTTKLAYYVRKPNIVRDLDLVNTVWPPGSFALGEYPHVDTYCLMSAENSYTEFHIEFGGSSAYYNILDGCKIFYLIPGTSKNWEAYTAWLTSSNDSDKKFLPNMVDVCYCVEVHSQQTILVPSGWIYAVVTPCDTISIAGNFLTFLHIYPQLSIYNLELQLGIEKEYQYPYFESIMWYTAIHFYLAFPDNSSRDGIDDIIAEYETGRLFDINAFTEQELDGFEELLNYLYIRAQILRDCDIII
In the case of B6, the binding [5] is reported as “no binding”.
